The list shows a part of the results.
Experiments:
Assay in all cases: glycan array binding signal (z-score within array); higher = stronger binding
Conditions in all cases: glycan notation: IUPAC condensed, linker removed
[1] = target: GalNAc(b1-4)GlcNAc(b1-2)Man
Outline: (§1)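 Glycan array data came from 3228 arrays in the Consortium for Functional Glycomics database, and only arrays with an available protein sequence were kept. Glycan names were put into IUPAC-condensed notation, and columns mapping to the same glycan were averaged. The binding signal is a within-array Z-score, averaged across arrays of one protein sequence run at different concentrations or buffers and across linkers. A negative Z-score can be read as non-binding.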

[2] = target: GalNAc(b1-4)GlcNAc(b1-2)Man(a1-3)[GalNAc(b1-4)GlcNAc(b1-2)Man(a1-6)]Man(b1-4)GlcNAc(b1-4)GlcNAc
Outline: as §1

[3] = target: GalNAc(b1-4)GlcNAc(b1-3)GalNAc(b1-4)GlcNAc
Outline: as §1

GalNAc(b1-4)GlcNAc6S = target: GalNAc(b1-4)GlcNAc6S
Outline: as §1

GalNAc(b1-6)GalNAc = target: GalNAc(b1-6)GalNAc
Outline: as §1

GalNAc3S(b1-4)GlcNAc = target: GalNAc3S(b1-4)GlcNAc
Outline: as §1

GalNAc3S(b1-4)GlcNAc3S = target: GalNAc3S(b1-4)GlcNAc3S
Outline: as §1

[4] = target: GalNAc3S(b1-4)[Fuc(a1-3)]GlcNAc
Outline: as §1

GalNAc4S6S(b1-4)GlcNAc = target: GalNAc4S6S(b1-4)GlcNAc
Outline: as §1

GalNAc6S(b1-4)GlcNAc = target: GalNAc6S(b1-4)GlcNAc
Outline: as §1

Glc(a1-4)Glc = target: Glc(a1-4)Glc
Outline: as §1

[5] = target: Glc(a1-4)Glc(a1-4)Glc(a1-4)Glc
Outline: as §1

Glc(a1-6)Glc(a1-6)Glc = target: Glc(a1-6)Glc(a1-6)Glc
Outline: as §1

[6] = target: Glc(a1-6)Glc(a1-6)Glc(a1-6)Glc
Outline: as §1

Glc(b1-4)Glc = target: Glc(b1-4)Glc
Outline: as §1

Glc(b1-6)Glc = target: Glc(b1-6)Glc
Outline: as §1

GlcA(b1-3)Gal = target: GlcA(b1-3)Gal
Outline: as §1

GlcA(b1-3)GlcNAc = target: GlcA(b1-3)GlcNAc
Outline: as §1

GlcA(b1-6)Gal = target: GlcA(b1-6)Gal
Outline: as §1

[7] = target: GlcA3S(b1-3)Gal(b1-4)GlcNAc(b1-2)Man
Outline: as §1

[8] = target: GlcA3S(b1-3)Gal(b1-4)GlcNAc(b1-3)Gal(b1-4)Glc
Outline: as §1

[9] = target: GlcNAc(a1-3)Gal(b1-4)GlcNAc
Outline: as §1

[10] = target: GlcNAc(a1-4)Gal(b1-3)GlcNAc
Outline: as §1

[11] = target: GlcNAc(a1-4)Gal(b1-4)GalNAc
Outline: as §1

[12] = target: GlcNAc(a1-4)Gal(b1-4)GlcNAc
Outline: as §1

[13] = target: GlcNAc(a1-4)Gal(b1-4)GlcNAc(b1-3)Gal(b1-4)Glc
Outline: as §1

[14] = target: GlcNAc(a1-4)Gal(b1-4)GlcNAc(b1-3)Gal(b1-4)GlcNAc
Outline: as §1

[15] = target: GlcNAc(a1-4)Gal(b1-4)GlcNAc(b1-3)Gal(b1-4)GlcNAc(b1-3)Gal(b1-4)GlcNAc
Outline: as §1

[16] = target: GlcNAc(a1-4)Gal(b1-4)GlcNAc(b1-3)Gal(b1-4)[Fuc(a1-3)]GlcNAc(b1-3)Gal(b1-4)[Fuc(a1-3)]GlcNAc
Outline: as §1

[17] = target: GlcNAc(a1-6)Gal(b1-4)GlcNAc
Outline: as §1

[18] = target: GlcNAc(b1-2)Gal(b1-3)GalNAc
Outline: as §1

[19] = target: GlcNAc(b1-2)Man(a1-3)[GlcNAc(b1-2)Man(a1-6)]Man(b1-4)GlcNAc(b1-4)GlcNAc
Outline: as §1

[20] = target: GlcNAc(b1-2)Man(a1-3)[GlcNAc(b1-2)Man(a1-6)]Man(b1-4)GlcNAc(b1-4)[Fuc(a1-6)]GlcNAc
Outline: as §1

[21] = target: GlcNAc(b1-2)Man(a1-3)[GlcNAc(b1-4)][GlcNAc(b1-2)Man(a1-6)]Man(b1-4)GlcNAc(b1-4)GlcNAc
Outline: as §1

[22] = target: GlcNAc(b1-2)Man(a1-3)[GlcNAc(b1-4)][GlcNAc(b1-2)Man(a1-6)]Man(b1-4)GlcNAc(b1-4)[Fuc(a1-6)]GlcNAc
Outline: as §1

[23] = target: GlcNAc(b1-2)[GlcNAc(b1-4)]Man(a1-3)[GlcNAc(b1-2)Man(a1-6)]Man(b1-4)GlcNAc(b1-4)GlcNAc
Outline: as §1

[24] = target: GlcNAc(b1-2)[GlcNAc(b1-4)]Man(a1-3)[GlcNAc(b1-4)][GlcNAc(b1-2)Man(a1-6)]Man(b1-4)GlcNAc(b1-4)GlcNAc
Outline: as §1

[25] = target: GlcNAc(b1-2)[GlcNAc(b1-4)]Man(a1-3)[GlcNAc(b1-4)][GlcNAc(b1-2)[GlcNAc(b1-6)]Man(a1-6)]Man(b1-4)GlcNAc(b1-4)GlcNAc
Outline: as §1

[26] = target: GlcNAc(b1-2)[GlcNAc(b1-4)]Man(a1-3)[GlcNAc(b1-4)][GlcNAc(b1-2)[GlcNAc(b1-6)]Man(a1-6)]Man(b1-4)GlcNAc(b1-4)[Fuc(a1-6)]GlcNAc
Outline: as §1

[27] = target: GlcNAc(b1-2)[GlcNAc(b1-6)]Man(a1-6)[GlcNAc(b1-2)Man(a1-3)]Man(b1-4)GlcNAc(b1-4)GlcNAc
Outline: as §1

[28] = target: GlcNAc(b1-2)[GlcNAc(b1-6)]Man(a1-6)[GlcNAc(b1-2)Man(a1-3)]Man(b1-4)GlcNAc(b1-4)[Fuc(a1-6)]GlcNAc
Outline: as §1

[29] = target: GlcNAc(b1-2)[GlcNAc(b1-6)]Man(a1-6)[GlcNAc(b1-4)][GlcNAc(b1-2)Man(a1-3)]Man(b1-4)GlcNAc(b1-4)GlcNAc
Outline: as §1

GlcNAc(b1-3)Fuc = target: GlcNAc(b1-3)Fuc
Outline: as §1

GlcNAc(b1-3)Gal = target: GlcNAc(b1-3)Gal
Outline: as §1

[30] = target: GlcNAc(b1-3)Gal(b1-3)GalNAc
Outline: as §1

B1: PX9961H-bth-557-24-557 (Bacteroides thetaiotaomicron) (protein)
chain: EETRTEVEKKNYMNNAEEAKDVLLGVYRTNTLDAMYGYYLSILFNLGTDISQVEGSGNENFRIIPTNSFPTTQSEVQQTWAALYTGIYRANDFLERISNKIGSYTTTDKKLATLYIAEARALRGMFYFELVRRFGNVVLMTSTQMSNQNPATYVQSAPEKVYEYIEDDLLYACDILPYATDDQYRESNDYRFSKGAALGLLTKVYATWAGYPVKDESKWEAAAKTARILVESGKHGLLKDYEQLWKNTCNGTWDPTESLIEISFYSPTVSGNSDPVGRIGKWNGVKTTAIAGVRGSCAANVKVVHTFVLDWREDVSDIRRDLSIANYQYTDTKKSLWVAGASDTDESAAEKDADPTKAQKNKQNYTPAKWDIQKYVTTNSFINNDKSNVNWYFLRYADVLLLYAEALNEWKHGPDAEAYNAINAVRRRGYGNPSNTSACDLPQGLDETSFREAVRKERSYELSFEGHRRQDLIRWGIYYKTVQATAKELGYWWEGTGSPNYSVATYTEEGKHELFPIPQRDMDLCIQFNQNPKW
glycan array binding signal (z-score) [1]: -0.524
glycan array binding signal (z-score) [2]: 1.86
glycan array binding signal (z-score) [3]: 2.1
glycan array binding signal (z-score) (GalNAc(b1-4)GlcNAc6S): -0.11
glycan array binding signal (z-score) (GalNAc(b1-6)GalNAc): -0.526
glycan array binding signal (z-score) (GalNAc3S(b1-4)GlcNAc): -0.539
glycan array binding signal (z-score) (GalNAc3S(b1-4)GlcNAc3S): -0.316
glycan array binding signal (z-score) [4]: -0.317
glycan array binding signal (z-score) (GalNAc4S6S(b1-4)GlcNAc): -0.391
glycan array binding signal (z-score) (GalNAc6S(b1-4)GlcNAc): 0.123
glycan array binding signal (z-score) (Glc(a1-4)Glc): -0.332
glycan array binding signal (z-score) [5]: -0.637
glycan array binding signal (z-score) (Glc(a1-6)Glc(a1-6)Glc): -0.402
glycan array binding signal (z-score) [6]: -0.44
glycan array binding signal (z-score) (Glc(b1-4)Glc): -0.097
glycan array binding signal (z-score) (Glc(b1-6)Glc): -0.114
glycan array binding signal (z-score) (GlcA(b1-3)Gal): -0.564
glycan array binding signal (z-score) (GlcA(b1-3)GlcNAc): -0.211
glycan array binding signal (z-score) (GlcA(b1-6)Gal): 0.07
glycan array binding signal (z-score) [7]: -0.264
glycan array binding signal (z-score) [8]: -0.19
glycan array binding signal (z-score) [9]: -0.289
glycan array binding signal (z-score) [10]: 0.11
glycan array binding signal (z-score) [11]: -0.564
glycan array binding signal (z-score) [12]: -0.467
glycan array binding signal (z-score) [13]: -0.546
glycan array binding signal (z-score) [14]: -0.754
glycan array binding signal (z-score) [15]: 0.118
glycan array binding signal (z-score) [16]: 0.515
glycan array binding signal (z-score) [17]: -0.217
glycan array binding signal (z-score) [18]: -0.43
glycan array binding signal (z-score) [19]: -0.333
glycan array binding signal (z-score) [20]: -0.372
glycan array binding signal (z-score) [21]: -0.514
glycan array binding signal (z-score) [22]: -0.607
glycan array binding signal (z-score) [23]: -0.18
glycan array binding signal (z-score) [24]: -0.433
glycan array binding signal (z-score) [25]: -0.501
glycan array binding signal (z-score) [26]: -0.257
glycan array binding signal (z-score) [27]: 0.155
glycan array binding signal (z-score) [28]: -0.401
glycan array binding signal (z-score) [29]: -0.23
glycan array binding signal (z-score) (GlcNAc(b1-3)Fuc): -0.184
glycan array binding signal (z-score) (GlcNAc(b1-3)Gal): 0.222
glycan array binding signal (z-score) [30]: 0.164

From the supplement of paper PMC8728848
